Sequences with one replicate were seen in a single cluster, so their values are uncertain.
Each sequence was assayed on ATP (assay: switch fluorescence ratio, 500 uM ATP over buffer (Cy3 cluster intensity, sum of 5 cycles each) (fold (ratio)); higher = stronger signal-on switching upon ATP binding; sequences stand for … in TCGTCGGCAGCGTCAGATGTGTATAAGAGACAGTTTTTTTTTTTTTTTTTTTTTTTTT…TC). Conditions: aptamer strand: ATP DNA aptamer (quencher-CACCTGGGGGAGTATTGCGGAGGAAGG + anchor), 100 nM annealed; ATP concentration: 500 uM; one replicate.
Summary of the method: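 Clusters carrying Cy3-labelled switching strands on a modified Illumina MiSeq flow-cell were annealed to 100 nM quencher-labelled ATP aptamer and imaged in selection buffer. They were imaged again after 15 min with 500 uM ATP at 22 °C, over five buffer/ATP cycles with NaOH stripping and re-annealing in between. For each cluster, the fluorescence ratio is the summed Cy3 intensity of the target cycles divided by that of the buffer cycles, averaged per switch-domain sequence. Clusters outside 100-1000 RFU were left out.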
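Note: ATP exposure 15 min at 22 °C before imaging.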

Sequence | switch fluorescence ratio
CCTGTACAGC | 0.976
ACCTTTCTTT | 1.01
CGCCCGACGA | 1.56
CGCACTTCTT | 1.16
TTCGTGAA | 0.978
CCCTGCCGGT | 1.04
AGTCGACCTT | 1.03
AGGTAGCCAG | 1
GGCTAAATGC | 1.01
GGGATACCT | 1.92
CAGTTAGAGC | 1.02
GATCACCCGG | 0.975
TGCACGTAAA | 1.27
TAGATATTCG | 1
GAGGGACATC | 0.962
TAAACAGAGT | 0.982
TTTGGGCCAA | 0.987
AGATCTTATG | 0.987
AAATAGGCGC | 1.07
CCGGCTGGAG | 1.03
GGGGTTCGAG | 0.988
CAGTCTTGGG | 1
AAGGTTAGAT | 0.989

Sequence | switch fluorescence ratio
AGCGCAGTTC | 1.55
CCATGCTAAT | 1.05
GGGTAAGGTC | 0.961
ACACGGGCCG | 1.02
TATACTTTGT | 0.968
ATCGAAGAGA | 1
GGTCACCCGT | 1
GCTTAATCGA | 0.971
GGTTACGTCG | 0.997
ATATGCAGG | 1.04
TGGGAGCGA | 1.04
AGCGATTGTG | 0.953
CACGTCTCTA | 0.97
TGTGACTACT | 1.02
TTTTCATCGG | 0.997
AGATCGCGT | 1.02
AATGTAGGTG | 0.994
CAAAAAAATC | 0.987
CCTCTAGTTT | 1.1
GTAGGCTTGA | 1.03
TTAAGCGGTG | 1
AGCACAAGGG | 1.01
AACAATGATG | 0.972

Sequence | switch fluorescence ratio
CTGGGAGCCC | 0.969
CGCGCTCTAG | 1.01
TTGAATACGA | 1.04
TTTTCATAAT | 0.998
CTCGCCTGGG | 1.59
TCGGAAGGAG | 1.01
CAGTGTACTA | 1.1
TTACGAGTCG | 1.01
TTTGTCACTG | 1.05
CGGTCGGGCT | 0.992
GGGCGGCAGT | 0.977
ACCGAGAATA | 1.06
AGCCTCGGGC | 1.02
TATTGGCTAG | 0.993
TGGGGTCTAT | 1
CGTTAGATAT | 0.968
AGGCTTTTAG | 1.03
TGCGCGTCTG | 1.02
TAGATGACTT | 0.943
GAGCTGAACT | 1.06
TAAGTCTC | 0.959
CGAAAGTTAG | 0.983
TTATTCGGG | 0.983

Sequence | switch fluorescence ratio
TAAATCTCA | 1.03
TTACCGTTGG | 1.05
TCAGCATCTG | 1.03
TAGCCCACTA | 1
GTAACGTCCG | 1
GATGGTTGCA | 0.982
GCTGGACATG | 1.04
GAGGTTTATT | 1.02
GTCACATGTT | 0.964
GGGTAATTTC | 1.03
ACTCCTGTAG | 1.04
GAGCTTGGCT | 0.939
CTTACGCCCG | 1.03
GCATTCTTGG | 0.963
AAGTTGCTGC | 1.05
AACGCCTCAA | 1.17
GGGATTTTAG | 0.994
TAGTATGAAG | 1.2
ATGGATCTGG | 1.01
TGAATTACC | 1.02
GCACTGAAAG | 0.978
AGTGAGATTC | 0.975
ATGGGCATTG | 0.972

Sequence | switch fluorescence ratio
TCTGACCTCA | 1.08
GTGACTTAGG | 0.986
CCATGTCTGA | 0.989
ATGGAACTGC | 1.02
AGAACGTTGT | 0.859
TGAACCCGGA | 1.05
TTTCGTACAC | 1.06
GCGGGTGACA | 1.03
CGAAAGGAAC | 1.01
TCCGAGTAAA | 3.14
GCTAGATAGT | 1.01
ATGGAGTTTC | 0.977
GTGGGTCTAG | 0.963
CATCACAGGG | 1.14
AAACGTGTTT | 1.01
CGGATTTCGC | 1.01
ACTGACAGGA | 1.16
CGCCCGGAGT | 1.13
AATACACGAG | 1.01
ACAAGCTAAG | 1
AGGGTTGACC | 1
TGACTGAGGA | 1.01
CGCCTGAGGT | 1

Sequence | switch fluorescence ratio
GGCGCGCGAT | 0.989
AACCCTTCGA | 1.15
ACTTTAAGTC | 1.02
CCGGGCTAAG | 1.22
ATATTCGCTG | 1
TGGTGGGCGC | 1.03
CCAGGCTGGA | 1.02
AAATTAGCCC | 1
TGTGGCGAGG | 0.997
TTTTATCATT | 0.985
TGATGTGAGG | 0.993
AAAATAGACC | 1.13
ACGAGATTGA | 1.05
TCCTAGATTC | 1.03
GAGATTGTCC | 1.05
AAATAACGCC | 1.03
ACTGAATTCT | 1.06
TGGGCTGTGT | 0.985
TGTTGATTGC | 1.03
TGCTGCAAGA | 1.07
AAGGCGACGC | 1.01
GTTAGACGTT | 1.03
ATGGAGCAAT | 1.06

Sequence | switch fluorescence ratio
GAGAACATAG | 1
AGGAAGGGCA | 0.958
GATATTGTTC | 0.942
TCACGCGCAA | 3.05
ATACCTGCCG | 1.03
CGAAAAACAG | 1.11
CGGGTGCGTC | 0.999
TGTTTTCGA | 0.992
GATGAAGCA | 1.01
TAGTATCACG | 1.01
CCTATCCAGG | 1.59
CTGTCGATGG | 0.983
CCGGCGAAAA | 1.12
TTTGCGTCCC | 1.09
ATAAACCAGC | 0.991
CTTATGGAAA | 1.01
CGAATAAGC | 1.01
AAAACTGGAT | 0.953
AGGCTGTGCG | 1.02

— the supplement of paper PMC10126150
